Test results as given in PubChem BioAssay AID624417 (National Center for Advancing Translational Sciences (NCATS), 2012).
About 6,400 (1.6%) of roughly 410,000 compounds were called active. Inconclusive results, whose numbers are uncertain, are shown with a selection of clear calls. Calls come from the whole dose curve; as a rule, active = well fitted inhibition curve with a large enough effect; inconclusive = small, poorly fitted or top-dose-only effect; inactive = no such curve, though single readings can be large or run the other way. Potencies of inconclusive entries are left out as doubtful fits.

Molecular target: Glucagon-like peptide 1 receptor (Homo sapiens) (UniProt P43220)
Test: qHTS of GLP-1 Receptor Inverse Agonists (Inhibition Mode); note: nearly all actives have a fitted effect of over 55% in size
Details: HEK293 GLP-1R CRE-luciferase, luminescence, 24 h, GLP-1R form is constitutively active; activity change, negative = inhibition: at 38.3 µM (top of the series) unless noted
Method in brief: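 qHTS in 1536-well format: reporter HEK293 cells expressing constitutive GLP-1R activity in DMEM + 10% Nu serum, 24 hr with compounds at 37 deg C, luminescence read after 12 min with detection reagent.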
% is set by controls: 0 for no effect and ±100 for the full control effect; potency is the fitted concentration of half-maximal effect; tags give direction and shape of the fitted curve.

Chain of UniProt P43220 (P43220 whole entry, looked up): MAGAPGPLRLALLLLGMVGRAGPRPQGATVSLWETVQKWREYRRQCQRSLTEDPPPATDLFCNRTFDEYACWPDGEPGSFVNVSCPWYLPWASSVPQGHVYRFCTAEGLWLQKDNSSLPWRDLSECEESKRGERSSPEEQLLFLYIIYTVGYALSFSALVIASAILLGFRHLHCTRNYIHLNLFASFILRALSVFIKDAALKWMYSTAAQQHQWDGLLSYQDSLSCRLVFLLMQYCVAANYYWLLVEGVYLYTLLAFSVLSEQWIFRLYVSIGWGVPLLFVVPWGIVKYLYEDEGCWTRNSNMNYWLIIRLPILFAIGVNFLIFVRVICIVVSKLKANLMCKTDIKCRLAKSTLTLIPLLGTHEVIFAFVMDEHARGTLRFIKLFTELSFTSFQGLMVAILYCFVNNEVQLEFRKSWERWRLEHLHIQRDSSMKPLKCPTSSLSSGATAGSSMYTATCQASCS

| SMILES | activity change, negative = inhibition | Potency |
| --- | --- | --- |
| CSC1=NC2(CCN(C(=O)NC3CCCCC3)CC2)N=C1c1ccc(C(C)(C)C)cc1 | inactive: 7.31% |  |
| Cc1cc(C(C)(C)C)c(O)c(C)c1CC1=NCCN1 |  | inconclusive [inhibitor, single point] |
| Nc1c(C(=O)c2ccccc2)oc2ccccc12 |  | inconclusive [inhibitor, single point] |
| COc1ccc(CNC(=O)[C@@H]2CC=C[C@@H]3CCN(Cc4ccc(Cl)c(Cl)c4)C(=O)[C@@H]32)cc1 |  | inconclusive [inhibitor, single point] |
| CCc1ccc2occ(CC(=O)Nc3sc4c(c3C(=O)OC)CCC4)c2c1 |  | inconclusive [inhibitor, partial curve, poor fit] |
| COc1ccc(N2CC(O)(c3ccc(OC(F)F)cc3)[N+]3=C2CCCC3)cc1 (centres undefined) | inactive: -9.98% [at 7.66 µM] |  |
| Cc1nc2c(-c3ccccc3)c(C)nn2c(C)c1CCC(=O)NCc1ccco1 | inactive: 6.51% |  |
| COC(=O)c1sccc1NC(=O)CSc1nnnn1-c1ccccc1F |  | inconclusive [inhibitor, single point] |
| CC(=NNC(=O)c1ccccc1N)c1ccccc1O |  | inconclusive [inhibitor, partial curve, poor fit] |
| Cc1cc(C)n(C(=O)c2ccccc2[N+](=O)[O-])n1 | inactive: 0% |  |
| O=C(NCCCCc1ccccc1)C1CC(c2ccccc2C(F)(F)F)=NO1 (centres undefined) |  | inconclusive [inhibitor, single point] |
| CCOc1ccc(-c2nc(S(=O)(=O)c3ccccc3)c(NC)o2)cc1 | inactive: 13.4% |  |
| CCN(C(=O)CN1C(=O)NC(c2ccccc2)(c2ccc(C)c(C)c2)C1=O)C1CCS(=O)(=O)C1 (centres undefined) |  | inconclusive [inhibitor, single point] |
| COc1cc2c(-c3ccccc3Cl)nc3c(c(C)nn3-c3ccccc3)c2cc1OC |  | inconclusive [inhibitor, partial curve, poor fit] |
| COC(=O)[C@]12CCCCC=C1N(Cc1cccc3ccccc13)C(=O)[C@H](CC(=O)NCc1cccs1)C2 |  | inconclusive [inhibitor, partial curve, poor fit] |
| Cc1cccc(C(=O)Nc2ccccc2C(=O)OCc2cc(=O)n3nc(C4CC4)sc3n2)c1 | inactive: -2.39% |  |
| COc1cc(/C=N/Nc2ccc([N+](=O)[O-])cn2)cc(OC)c1O |  | inconclusive [inhibitor, full curve, poor fit] |
| CCC(C)(C)C1CCC2(CC1)NC(=O)N(CC(=O)N(C)CC(=O)Nc1ccccc1C(F)(F)F)C2=O (centres undefined) |  | inconclusive [inhibitor, partial curve, poor fit] |
| C[C@@H]1CC=C[C@H]2[C@H]1C(=O)N(Cc1ccccc1)[C@H]2c1ccc(F)c(-c2ccc(N(C)C)cc2)c1 |  | inconclusive [inhibitor, single point] |
| Cc1ccc(OCC(=O)Nc2ccc(S(=O)(=O)N(Cc3ccccc3)c3ccccc3)cc2)cc1 | inactive: 5.43% |  |

| SMILES | activity change, negative = inhibition | Potency |
| --- | --- | --- |
| COc1ccccc1/C=C(/C(=O)OCC(=O)Nc1ccccc1C(C)C)c1ccccc1 |  | inconclusive [inhibitor, single point] |
| Cc1cc(C)cc(OCCNS(=O)(=O)c2cccs2)c1 |  | inconclusive [inhibitor, single point] |
| CCN1CCN(C(=O)c2ccc(COc3cccc(Cl)c3)o2)CC1 |  | inconclusive [inhibitor, partial curve] |
| Cc1sc2nc3c4ccccc4c(NCc4ccco4)nn3c(=O)c2c1C | inactive: 146% |  |
| Cc1ccc(-c2cc(=O)c3cc(C)ccc3[nH]2)cc1 |  | active: 3.16 µM |
| CC(=O)c1ccc(-n2c(C)c(C(C)=O)c3cc(O)ccc32)cc1 |  | inconclusive [inhibitor, full curve, poor fit] |
| CC(C)(C)OC(=O)NCCCC[C@H](NC(=O)c1nc[nH]c1C(=O)NCc1ccc(CNC(=O)OC(C)(C)C)cc1)C(=O)OC(C)(C)C |  | inconclusive [inhibitor, single point] |
| COc1ccc(C(=O)CC(Nc2ccc([N+](=O)[O-])cc2)c2ccc(Cl)cc2)cc1 (centres undefined) |  | inconclusive [inhibitor, partial curve, poor fit] |
| CC1CCN(C(=O)c2cc(-c3ccc4c(c3)OCO4)on2)CC1 |  | inconclusive [inhibitor, partial curve] |
| N#Cc1sc2nccc(Nc3ccccc3)c2c1N |  | inconclusive [inhibitor, full curve, poor fit] |
| COc1cccc(-n2nnnc2SCC(=O)Nc2ccc3c(c2)OCCO3)c1 |  | inconclusive [inhibitor, full curve, poor fit] |
| O=C(O)Cc1sc(NC2CCCCC2)nc1-c1ccc(Cl)cc1 |  | inconclusive [inhibitor, partial curve, poor fit] |
| COc1cccc(N2CCN(c3ncnc4onc(-c5ccc(Cl)cc5)c34)CC2)c1 |  | inconclusive [inhibitor, single point] |
| Cc1ccc(C)c(Nc2nn3c(=O)c4ccc(C(=O)NCc5cccs5)cc4nc3s2)c1 |  | inconclusive [inhibitor, partial curve, poor fit] |
| CCc1ccc(C(C(=O)NCc2ccc(F)cc2)N(C(=O)c2csnn2)C2CC2)cc1 (centres undefined) |  | inconclusive [inhibitor, partial curve, poor fit] |
| Cc1ccc(/C=N/NC(=O)C2COc3ccccc3O2)s1 (centres undefined) |  | inconclusive [inhibitor, full curve, poor fit] |
| COc1cccc(/C=N/Nc2ncc(C(F)(F)F)cc2Cl)c1O |  | inconclusive [inhibitor, full curve, poor fit] |
| CCCn1c(-c2cccs2)nc2ccccc21 |  | inconclusive [inhibitor, partial curve, poor fit] |
| Cc1ccc(COC[C@H](CC(C)C)N2CCN(C(=O)c3cccc(C(F)(F)F)c3)CCC2=O)cc1 |  | inconclusive [inhibitor, single point] |
